Experimental data from PubChem BioAssay AID488969 (Vanderbilt High Throughput Screening Facility, 2010).
The full ranking holds about 110,000 compounds; the median of “z-score” is about -0.1, and the highest 2% start at about 2. The list shows a part of the results. Active and inactive are the calls of the source.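 How the source made its calls: active means z-score in the third read window above 3 or below -3; inactive means the rest.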 Residues, ends and D or L forms follow the SMILES beside them. *: point of attachment. Boc = CC(C)(C)OC(=O)*; Bn = c1ccc(C*)cc1

Molecular target: Metabotropic glutamate receptor 8 (Rattus norvegicus) (UniProt P70579)
Assay: mGluR8 Gi/Go-coupled signaling modulation – cell-based, rat, thallium flux, HTS, primary screen (AID 488969)
Settings: HEK293 rat mGluR8, GIRK (G protein-gated inwardly rectifying potassium channel) thallium flux, FluoZin2; at 10 µM; stronger effect = higher value; submaximal glutamate (EC20) added with thallium

Sequence of UniProt P70579 (P70579 whole entry, looked up): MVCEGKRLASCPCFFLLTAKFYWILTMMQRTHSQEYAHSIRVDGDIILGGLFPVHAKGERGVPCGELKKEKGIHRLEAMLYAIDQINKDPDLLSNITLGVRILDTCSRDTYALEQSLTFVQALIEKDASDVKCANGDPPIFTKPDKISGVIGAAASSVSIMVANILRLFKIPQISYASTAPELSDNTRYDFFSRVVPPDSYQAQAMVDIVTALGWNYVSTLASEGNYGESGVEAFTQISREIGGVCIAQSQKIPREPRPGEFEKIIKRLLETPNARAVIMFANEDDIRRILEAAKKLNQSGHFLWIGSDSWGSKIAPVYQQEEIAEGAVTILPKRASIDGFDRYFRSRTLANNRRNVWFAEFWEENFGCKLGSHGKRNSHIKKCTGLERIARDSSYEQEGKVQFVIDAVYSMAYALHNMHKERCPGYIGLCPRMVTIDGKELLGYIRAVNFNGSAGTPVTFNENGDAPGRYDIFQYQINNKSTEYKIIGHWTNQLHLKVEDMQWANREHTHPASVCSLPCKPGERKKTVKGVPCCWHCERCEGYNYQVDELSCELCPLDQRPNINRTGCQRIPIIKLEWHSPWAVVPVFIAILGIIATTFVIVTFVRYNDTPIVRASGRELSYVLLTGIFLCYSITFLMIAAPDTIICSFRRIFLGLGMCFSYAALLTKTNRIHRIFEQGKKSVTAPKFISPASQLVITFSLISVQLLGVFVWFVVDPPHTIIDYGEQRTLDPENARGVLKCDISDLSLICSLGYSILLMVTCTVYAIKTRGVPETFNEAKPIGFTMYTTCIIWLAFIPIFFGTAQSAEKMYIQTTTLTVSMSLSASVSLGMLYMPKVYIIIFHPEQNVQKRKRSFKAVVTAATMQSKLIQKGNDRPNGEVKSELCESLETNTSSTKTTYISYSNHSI

Compound | z-score
CC1CCN(C(=O)CSc2nnc(-c3ccncc3)n2C)CC1 | -0.27
COc1ccc(CN=C2NC(=O)CC(C(=O)Nc3ccc([N+](=O)[O-])cc3C)S2)cc1 (stereo unspecified) | -0.193
O=C(Cc1ccc(Cl)cc1)N/N=C/c1c(Cl)cccc1Cl | 0.261
CCCCCCCC(=O)NNC(=O)Cc1ccccc1 | -0.119
COc1ccc(-c2cn(-c3ccc(C)cc3)c(=O)n2CC(=O)Nc2ccc(OC)cc2OC)cc1 | -0.429
Cc1ccc(-c2nnc3sc(-c4ccc5c(c4)OCCO5)nn23)cc1 | 1.36
Cc1occc1C(=O)N1CCCc2ccccc21 | -0.103
COc1cc2nc(NCCCN3CCN(C)CC3)n3nc(-c4ccccc4)nc3c2cc1OC | 0.207
COc1ccccc1OCC(=O)OCC(=O)Nc1ncc(Cl)cc1Cl | -0.563
Cc1nc(C)c(C(=O)C2=C(O)C(=O)N(CCN3CCOCC3)C2c2cccs2)s1 (stereo unspecified) | 0.147
CCOc1ccc(/C=C/C(=O)c2ccccc2)cc1OC | -1.08
CC(=O)Nc1ccc2nc(-c3ccc(Br)o3)[nH]c2c1 | -0.347
CCOC(=O)C(C)Oc1c(Br)cc(C2NC(=O)NC(C)=C2C(C)=O)cc1OCC (stereo unspecified) | -0.276
COc1ccc(CCNC(=O)c2ccc(Cl)c(S(=O)(=O)N(C)c3ccccc3)c2)cc1 | -0.629
O=c1cc(CN2CCN(c3ccccc3O)CC2)nc2sccn12 | -0.31
COc1ccc(C(C(=O)NC2CCCCC2)N(Cc2ccco2)C(=O)CNC(=O)c2ccco2)cc1 (stereo unspecified) | 0.256
CCOc1ncccc1C(=O)OCC(=O)N1CC(=O)Nc2ccccc21 | 2.36
COc1ccc(-n2c(SCC(=O)Nc3ccc(C(=O)O)cc3)nnc2-c2cccs2)cc1 | 0.0972
Cc1c(-c2ccccc2)oc2c(C(=O)OCC(=O)Nc3ccc(C(N)=O)cc3)cccc2c1=O | -1.33
COCCN(C(=O)CCC(=O)Nc1ccccn1)C(C(=O)NC1CCCC1)c1ccc(OC)cc1 (stereo unspecified) | -0.622
COc1cccc2c1OC[C@@H](CO)[C@H]2N(C)C(=O)Nc1ccccc1 | active: 6.33
CCCC(C)n1[nH]c(=O)c2c(C)cc(C)nc21 (stereo unspecified) | -0.255

Compound | z-score
Cc1c(C(=O)Nc2ccc(Cl)cn2)oc2ccccc12 | -0.194
Cc1nc2c(-c3ccccc3)c(C)nn2c(C)c1CCC(=O)O | 0.235
CCCCNC1C(CC)C(CCC)C(C#N)(C#N)C1(C#N)C#N (stereo unspecified) | -0.218
COc1cc(NC(=O)C2CC(=O)NC3=C2C(=O)CC(C)(C)C3)c(OC)cc1Cl (stereo unspecified) | -0.189
COc1ccc(OC)c2sc(NC(=O)C(C)C)nc12 | -0.367
CC(C)(C)c1ccc(C(=O)N/N=C/c2cccc(Cl)c2)cc1 | 1.35
COc1ccc(CCN2C(=O)NC(NC(C)=O)(C(F)(F)F)C2=O)cc1OC (stereo unspecified) | -0.0599
COc1ccc(OCCCc2c(C)n[nH]c2C)cc1 | -0.118
O=S(=O)(N1CCOCC1)n1c(Cc2ccccc2)nc2ccccc21 | 0.438
C=CCn1c(CSCc2ccccc2)nnc1SCC(=O)NCc1ccccc1 | -0.096
Cc1ccc(-c2csc(NC(=O)CSc3nc(C)cs3)n2)cc1 | 0.156
O=C(O)C1CCCCC1C(=O)Nc1ccc2c(c1)OCCO2 (stereo unspecified) | 0.102
Cc1ccc(N2C(N)=C(C#N)C(c3cccs3)C3=C2CC(C)(C)CC3=O)cc1 (stereo unspecified) | -0.289
O=C(CSc1nc(-c2ccco2)cc(C(F)(F)F)n1)N1CCCc2ccccc21 | 0.302
CCOc1ccccc1N1CCN(C(=O)/C=C/c2cccc([N+](=O)[O-])c2)CC1 | 0.17
CC(C)CC(c1nnnn1C(C)(C)C)N1CCN(C2CCCC2)CC1 (stereo unspecified) | 0.378
N#C/C(=C\c1ccc(N2CCOCC2)cc1)c1ccccc1 | -0.497
CN(CC(=O)Nc1ccc(F)cc1)c1ccc(S(=O)(=O)N2CCCCC2)cc1[N+](=O)[O-] | -0.121
CC1=NN(Cc2ccccc2)C(=O)/C1=C/c1ccc(N(C)C)cc1 | 0.0819
O=S(=O)(NCCc1cn2ccccc2n1)c1ccc(F)c(C(F)(F)F)c1 | 0.422
COc1ccc(OC)c(S(=O)(=O)Nc2ccc3oc4c(c3c2)C(=O)CCC4)c1 | 0.244
O=C(Oc1coc(CSc2nnc(NC(=O)C3CC3)s2)cc1=O)c1ccccc1 | -0.176

Compound | z-score
O=C(/C=C/c1ccc(Cl)cc1)Nn1c(-c2cccs2)nc2ccccc2c1=O | -0.113
Cc1cc(NC(=O)C2C3C(=O)N(CCC(C)C)C(C(=O)NCc4ccccc4)C34C=CC2(C)O4)no1 (stereo unspecified) | -0.142
CC(C)CC(NC(=O)C(Cc1ccc(OCc2ccccc2)cc1)NC(=O)OC(C)(C)C)C(N)=O (stereo unspecified) (Boc-Tyr(Bn)-Leu-NH2; configuration not given here) | -0.105
CCOC(=O)Cc1csc(NC(=O)CSc2nnc(-c3ccc(C)cc3)o2)n1 | 0.697
O=c1oc2ccccc2cc1N1CCOCC1 | -0.0667
CCCSc1nnc(-c2c[nH]c3ccccc23)n1CC | 0.224
CCn1c(Cc2ccccc2)nnc1SCC(=O)Nc1ccc2c(c1)OCCO2 | -0.292
O=[N+]([O-])c1ccc(N2CCN(c3nc(-c4ccc(Cl)cc4)cs3)CC2)cc1 | -0.33
CCC(=O)c1ccc(OCC(O)CN2CCN(S(=O)(=O)N3CCCCC3)CC2)cc1 (stereo unspecified) | 0.921
COc1ccc(C(=O)c2ccc(Cl)cc2)cc1 | -0.154
COc1ccc2c(c1)N1CCN=C1N2C | 1.97
O=S(=O)(NNc1ccc(Cl)nn1)c1ccc(F)cc1 | 0.278
O=C(C1CCN(C2CC(=O)N(c3cccc(Cl)c3)C2=O)CC1)N1CCCCCC1 (stereo unspecified) | -1.25
Cc1cnc(NC(=O)CSc2nnc(-c3ccccc3)n2Cc2ccccc2)s1 | -0.372
CCN(CC)C(=O)Cn1cnc2sc(C(=O)N3CCN(c4ccc(OC)cc4)CC3)c(C)c2c1=O | 0.302
O=C(CN1CCOCC1)NC1CC2CCC1C2 (stereo unspecified) | 0.0479
CCCCOc1ccc(Cc2n[nH]c(=S)n2N)cc1 | 0.16
Cc1ccccc1OCC(=O)OC(C)CN1CCN(C)CC1 (stereo unspecified) | -0.0943
CCOC(=O)C1CCN(C(C)=C2C(=O)c3ccccc3C2=O)CC1 | 0.966
O=C(CCCOc1ccccc1)Nc1ccc(Br)cc1 | -0.277
CCn1c(SCC(=O)Nc2ccc3c(c2)OCO3)nnc1-c1ccccc1O | -0.55
O=C(NNC(=O)c1cccc2ccccc12)c1ccco1 | -0.179

Compound | z-score
COc1ccc(CNC(=O)C(=O)NCC2CCCO2)cc1 (stereo unspecified) | -0.283
CCc1nnc(NC(=O)Cc2ccc(OCc3c(C)noc3C)cc2)s1 | -1.17
O=C(CN1CCNCC1)Nc1ccc(Oc2ccccc2)cc1 | 2.35
O=S(=O)(Nc1ccc2c(c1)nc1n2CCN(Cc2ccccc2)C1)c1ccc(F)cc1 | -1.34
Cn1c(=O)cc(OCCCC(=O)NCc2ccccn2)c2ccccc21 | 0.111
CCCCN(Cc1ccco1)C(=O)Cn1ncc2c(=O)oc3ccc(C)cc3c21 | -0.352
O=C(COC(=O)c1ccccc1Cl)Nc1nccs1 | -0.0413
Clc1cncc(Cl)c1NNc1c2ccccc2nc2ccccc12 | 0.0214
COC(=O)c1cn(CC(=O)NCc2cccs2)c2ccccc12 | -0.307
CCOc1ccc(C(=O)Nc2cccc(-c3nc4ccccc4[nH]3)c2C)cc1[N+](=O)[O-] | -0.366
CC(=O)c1c(C)c[nH]c1C | 1.16
Cc1sc2nc(SCc3nc4ccccc4[nH]3)n(Cc3ccco3)c(=O)c2c1C | 0.693
CCOC(=O)Cc1cc(-c2ccc(O)cc2)nc2ccc3ccccc3c12 | 0.0725
N#C/C(=C\c1cccnc1)C(=O)NC1CCCCC1 | -0.27
COc1cc2c(cc1OC)CN(C(C)C(=O)Nc1ccc(NC(C)=O)cc1)CC2 (stereo unspecified) | 0.157
C=C(C)C(=O)NC1=NN(c2ccccc2)C(=O)C1 | -0.302
O=C(N/N=C/c1cccc([N+](=O)[O-])c1)c1cc(-c2ccccc2)nc2ccccc12 | -0.328
COC(=O)[C@H]1CCCN1C(=O)Nc1cccc(Oc2c(F)c(F)c(F)c(F)c2F)c1 | 0.336
c1ccc(C2=NC(c3ccccc3)N=C(c3ccccc3)N2)cc1 | -0.335
O=C(Nc1cccnc1)c1ccc(COc2ccccc2Br)o1 | -0.158
COc1ccc2[nH]c(C)c(CCN(Cc3cccs3)C(=S)Nc3ccccc3)c2c1 | 0.0461
COc1ccc(NC(=O)c2cc(C)on2)cc1OC | 1.98

Compound | z-score
CCCCOc1ccc(C(=O)N/C(=C\c2cccc([N+](=O)[O-])c2)C(=O)OCc2ccco2)cc1 | -0.156
Cc1ccc(/C=C/C(=O)NCc2ccco2)o1 | -0.412
Cc1cc(C)n2c(SCC(=O)Nc3cc(C)on3)nnc2n1 | 0.885
CCOC(=O)C1=C(C)Nc2ccccc2N=C1NC(=O)c1cccc(S(=O)(=O)NCc2ccccc2)c1 | 0.0479
COc1cc(C(c2nnnn2C(C)(C)C)N2CCN(c3nc4ccccc4s3)CC2)ccc1O (stereo unspecified) | -0.579
COc1ccc(C)cc1NC(=O)COC(=O)c1ccc(OCc2ccc(Cl)cc2Cl)c(OC)c1 | 0.00468
CCCC(=O)NCCc1cc2cc(C)c(C)cc2[nH]c1=O | 0.486
O=C1C(NS(=O)(=O)c2cccs2)=C(N2CCN(c3cccc(C(F)(F)F)c3)CC2)C(=O)c2ccccc21 | -0.101
CCOC(=O)c1c(NC(=O)CSc2nnc(-c3ccncc3)n2Cc2ccco2)sc(C(C)=O)c1C | active: -3.85
COc1ccc(C(F)(F)F)cc1N/C=C\c1nnnn1-c1ccc(C)cc1 | -0.108
COc1cccc(CNC(=O)c2cccc(Br)c2)c1 | -0.188
Cc1nn(-c2ccccc2)c(C)c1/C=N/NC(=O)c1cc(C2CC2)[nH]n1 | -0.52
COc1ccc(OC(C)C(=O)NCc2cccnc2)cc1 (stereo unspecified) | -0.197
Cc1cc(N2CCN(c3ccccc3)CC2)nc(-n2nc(C)cc2C)n1 | 0.16
O=C(NC1CCCc2ccccc21)C1CCCN(S(=O)(=O)c2cnc[nH]2)C1 (stereo unspecified) | 0.957
O=C(O)C1C(C(=O)Nc2ccc(Cl)cc2)C2C=CC1C21CC1 (stereo unspecified) | 0.236
CC(=O)N1CCC(N(CCN2CCOCC2)C(=S)Nc2c(C)cccc2C)CC1 | -0.117
CCOc1ccc(N2C(=O)c3ccccc3C2=O)cc1 | -1.29
